Laboratory results as given in article PMC4336329 (PLoS ONE, 2015).
Out of some 310,000 compounds screened, about 14,000 (4.5%) showed an effect of 50% or more. Effects have a minus sign here. This is one part of the list.

What follows are compounds tested against human ether-à-go-go-related gene (hERG) potassium channel (human, UniProt Q12809) (assay: primary screen, population patch clamp on CHO cells stably expressing hERG).
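Note: peak tail current of the secondary pulse compared with the same well before compound.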

Sequence of human ether-à-go-go-related gene (hERG) potassium channel (Q12809 whole entry, looked up): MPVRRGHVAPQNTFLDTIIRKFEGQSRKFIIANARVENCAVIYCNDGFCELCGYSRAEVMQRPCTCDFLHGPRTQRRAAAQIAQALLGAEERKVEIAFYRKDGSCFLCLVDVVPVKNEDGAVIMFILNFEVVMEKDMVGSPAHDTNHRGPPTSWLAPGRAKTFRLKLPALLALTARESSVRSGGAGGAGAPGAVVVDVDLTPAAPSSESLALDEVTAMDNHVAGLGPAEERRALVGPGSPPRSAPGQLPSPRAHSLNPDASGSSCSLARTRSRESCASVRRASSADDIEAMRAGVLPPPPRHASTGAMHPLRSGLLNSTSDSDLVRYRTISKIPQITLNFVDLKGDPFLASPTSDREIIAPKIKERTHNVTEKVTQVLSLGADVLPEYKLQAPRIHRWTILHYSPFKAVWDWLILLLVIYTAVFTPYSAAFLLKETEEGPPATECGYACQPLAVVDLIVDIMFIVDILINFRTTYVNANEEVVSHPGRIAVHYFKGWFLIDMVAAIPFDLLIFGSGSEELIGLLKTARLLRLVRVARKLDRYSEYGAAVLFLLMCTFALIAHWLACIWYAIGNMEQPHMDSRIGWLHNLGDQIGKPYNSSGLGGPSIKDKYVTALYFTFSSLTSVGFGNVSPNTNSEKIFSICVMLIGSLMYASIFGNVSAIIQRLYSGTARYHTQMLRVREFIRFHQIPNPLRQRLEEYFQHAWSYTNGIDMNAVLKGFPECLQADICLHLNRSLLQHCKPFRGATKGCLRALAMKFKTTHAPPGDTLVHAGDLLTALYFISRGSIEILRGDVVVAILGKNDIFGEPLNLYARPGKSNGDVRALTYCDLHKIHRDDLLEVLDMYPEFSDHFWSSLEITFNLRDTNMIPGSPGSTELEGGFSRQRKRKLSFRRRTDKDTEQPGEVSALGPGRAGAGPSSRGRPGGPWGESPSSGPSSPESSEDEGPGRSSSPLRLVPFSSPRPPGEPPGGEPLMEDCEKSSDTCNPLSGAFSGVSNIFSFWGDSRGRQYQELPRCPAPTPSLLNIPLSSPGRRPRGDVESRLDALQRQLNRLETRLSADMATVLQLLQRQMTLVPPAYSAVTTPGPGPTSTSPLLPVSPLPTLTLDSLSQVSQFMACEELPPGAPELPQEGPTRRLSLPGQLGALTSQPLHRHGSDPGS

SMILES | hERG current change (%, negative = inhibition) at 10uM [%]
CCOP(=O)(OCC)C(Nc1ccccc1)c1ccc2c(c1)OCO2 (stereo not shown) | -14.1
Cc1cc(N)n(-c2ccc3ccccc3c2)n1 | 3.46
C=CCN1C(=O)CS/C1=N\N=C\c1cccc([N+](=O)[O-])c1 | -9.06
CNC(=O)NC(=O)C(C)OC(=O)c1c(C)noc1C (stereo not shown) | 9.99
COCCCNC(=O)c1ccc(CS(=O)(=O)c2ccc(Br)cc2)o1 | -14.3
CC(C)Oc1ccc(C(=O)O)c(C(=O)O)c1 | -7.09
CCc1ccc(NC(=O)CCc2ccc(C)o2)cc1 | 18.2
CN1CCN(CC(O)Cn2c3ccccc3c3ccccc32)CC1.O=C(O)C(=O)O (stereo not shown) | 3.46
CC(=O)N1N=C(c2ccccc2)CC1c1ccc(F)cc1 (stereo not shown) | 3.21
CCOC(=O)N1CCN(C(=S)NC(=O)c2ccc(F)c(F)c2)CC1 | -8.76
Cc1ccc(NC(=O)c2ccccc2OCC(=O)c2ccc(F)cc2)cc1 | -1.85
Cc1cc(NC(=O)CCCC(=O)NCc2cccs2)no1 | -10.1
CN(C)c1cccc(C(=O)OCC(=O)Nc2ccccc2-c2ccccc2)c1 | -14.2
Cc1cc(C)c(NC(=O)CSc2ccc(-c3ccccn3)nn2)c(C)c1 | 17.9
Cc1ccn2c(=O)nc(SCC(=O)NCc3ccccc3)nc2c1 | 0.12
CCOC(=O)N1CCN(CC(O)c2ccc3cc[nH]c3c2)CC1 (stereo not shown) | -30.4
CCCCN1C2=NC(c3ccccc3)CN2c2ccccc21.Cl (stereo not shown) | -69
CO[C@H]1C=CO[C@@]2(C)Oc3c(C)c(O)c4c(O)c(c(C=NN5CCN(C)CC5)c(O)c4c3C2=O)NC(=O)C(C)=CC=C[C@H](C)[C@H](O)[C@@H](C)[C@@H](O)[C@@H](C)[C@H](OC(C)=O)[C@@H]1C | -41.6
CC1CC(C)(C)NC(=S)N1CC(=O)NCc1ccc2c(c1)OCO2 (stereo not shown) | 1.92
O=C(NCC1CCCO1)c1ccc2c(c1)N(Cc1ccccc1)C(=O)CS2=O (stereo not shown) | -2.18

SMILES | hERG current change (%, negative = inhibition) at 10uM [%]
Cc1ccc(Cn2c(=O)n(C)c(=O)c3sccc32)cc1 | 6.76
Cc1cc(C)cc(NC(=O)CSc2nnc(-c3cc(C)[nH]n3)n2N)c1 | 12.5
Cc1ccc(C)c(N2CCN(C(=O)C3CCN(c4nc(C)cc(C)n4)CC3)CC2)c1 | -10.3
C=CCn1c(SCC(=O)N2CCOCC2)nc2sc3c(c2c1=O)CCCC3 | -53.9
O=C(NCc1cccnc1)c1cc2ccccc2oc1=O | -4.41
O=c1[nH]nc(SCc2nc3ccccc3s2)n1C1CC1 | 6.94
CSc1ncc(C(=O)Nc2cccc(Cl)c2)c(C)n1 | 10.9
S=C(NCC1CCCO1)Nc1cc(Cl)c(Cl)cc1Cl (stereo not shown) | 2.9
O=C(NCc1ccco1)c1cc(-c2ccc(F)cc2)on1 | 7.88
CCN(CC)CCCNC(=S)N1CCN(c2nc(-c3ccccc3)cs2)CC1 | -26.5
COc1ccc(CC(=O)NC(=S)Nc2cccc(C)c2)cc1 | 5.19
Cc1cccc(-c2nc(=S)c3c(o2)CCCC3)c1 | 0.759
O=[N+]([O-])c1ccc(COc2cccc3cccnc23)cc1 | -11.2
CCN(CC)CCNc1nc(-c2ccc(OC)cc2)c(-c2ccc(OC)cc2)s1 | -52.6
COC(=O)c1ccn(C(=O)c2ccc(Cl)cc2)n1 | 9.16
COc1ccccc1NC(=O)CC(=O)c1cccc([N+](=O)[O-])c1 | 6.64
CCOCCCN(C)C1CCN(C(=O)c2oc3ccccc3c2NC(=O)Cc2cccc([N+](=O)[O-])c2)CC1 | -75.3
CCCC(=O)N(c1ccc2oc(C)c(C(C)=O)c2c1)S(=O)(=O)c1ccc(C)c([N+](=O)[O-])c1 | 2.43
C/C(=N\NC(=O)c1cccc(S(=O)(=O)N2CCOCC2)c1)c1ccco1 | -4.41
COC(=O)CCCCCN1C(=O)NC(C2CC2)C(C(=O)OCc2ccccc2)=C1C (stereo not shown) | -16.4

SMILES | hERG current change (%, negative = inhibition) at 10uM [%]
CCN(Cc1ccc(OC)c(F)c1)C(=O)c1cc2ccccc2o1 | -24.7
COc1cc(C(C)=O)ccc1OCc1nnc(-c2ccccc2Br)o1 | -17
CCCCc1c(CCC)c(=N)c2ccccc2n1C.I | -46
Cc1cc(=O)n2[nH]c(N3C(=O)CCC3=O)nc2n1 | 10.3
CC(=O)Nc1ccc(S(=O)(=O)NCCC(=O)OCC(=O)c2ccc(F)c(F)c2)cc1 | 11.3
Cc1nc(N2CCOCC2)[nH]c(=O)c1[N+](=O)[O-] | 16.7
COc1ccc(NC(=O)CO/N=C2\CCCc3nonc32)cc1 | -1.57
Cn1c(CNC(=O)c2ccc3c(c2)OCO3)nnc1SCC(=O)Nc1ccccc1F | 8.83
COC(=O)Cc1ccc(NC(=O)c2ccccc2Cl)cc1 | 18.6
N#Cc1c(-c2cccnc2)c2c([nH]c1=S)CCCC2 | 12.9
COc1ccc(NC(=O)c2cc3ccc4c5ccccc5[nH]c4c3cc2O)cc1 | 11.9
Cc1ccc(C(=O)OCC(=O)N2CC(=O)Nc3ccccc32)s1 | 15.5
O=C(O)CNc1nc(-c2ccccc2)nc2c1oc1ccccc12 | 9.72
Cc1ccc(Cl)cc1NC(=O)c1ocnc1C | 3.52
CCOc1ccc(NC(=O)c2ccncc2)cc1 | 20.9
Cc1ccc(S(=O)(=O)CC(=O)Nc2nc(C(C)(C)C)cs2)cc1 | -27
NC(=O)SCC(=O)Nc1ccccc1C(=O)O | 34.5
NC(=O)c1ccccc1NS(=O)(=O)c1ccc(S(=O)(=O)N2CCCC2)cc1 | 1.87
